Data from a compilation of properties of binary mixtures (doi:10.1021/je9900225).
Some of these densities may be calculated back from excess volumes.

Assay: xn = mol fraction of the nth substance listed
Conditions: 100 kPa

CCOCCOCC + COCCOCCOCCO
mass density (298.15 K, x2 = 0.0126): 839.3 kg/m3 | mass density (298.15 K, x2 = 0.0328): 844.3 kg/m3 | mass density (298.15 K, x2 = 0.052): 849 kg/m3 | mass density (298.15 K, x2 = 0.0807): 855.9 kg/m3 | mass density (298.15 K, x2 = 0.1339): 868.5 kg/m3 | mass density (298.15 K, x2 = 0.1806): 879.4 kg/m3 | mass density (298.15 K, x2 = 0.2394): 892.8 kg/m3 | mass density (298.15 K, x2 = 0.2918): 904.5 kg/m3 | mass density (298.15 K, x2 = 0.342): 915.5 kg/m3 | mass density (298.15 K, x2 = 0.385): 924.8 kg/m3 | mass density (298.15 K, x2 = 0.4103): 930.1 kg/m3 | mass density (298.15 K, x2 = 0.4604): 940.7 kg/m3 | mass density (298.15 K, x2 = 0.5091): 950.8 kg/m3 | mass density (298.15 K, x2 = 0.5505): 959.2 kg/m3 | mass density (298.15 K, x2 = 0.5978): 968.7 kg/m3 | mass density (298.15 K, x2 = 0.6522): 979.4 kg/m3 | mass density (298.15 K, x2 = 0.7117): 990.9 kg/m3 | mass density (298.15 K, x2 = 0.7976): 1007 kg/m3 | mass density (298.15 K, x2 = 0.8577): 1018 kg/m3 | mass density (298.15 K, x2 = 0.9256): 1030.1 kg/m3 | mass density (298.15 K, x2 = 0.9633): 1037.1 kg/m3 | mass density (308.15 K, x2 = 0): 827.6 kg/m3 | mass density (308.15 K, x2 = 0.0126): 830.7 kg/m3 | mass density (308.15 K, x2 = 0.0328): 835.6 kg/m3 | mass density (308.15 K, x2 = 0.0807): 847.2 kg/m3 | mass density (308.15 K, x2 = 0.1339): 859.8 kg/m3 | mass density (308.15 K, x2 = 0.1806): 870.6 kg/m3 | mass density (308.15 K, x2 = 0.2394): 884 kg/m3 | mass density (308.15 K, x2 = 0.2918): 895.7 kg/m3 | mass density (308.15 K, x2 = 0.342): 906.7 kg/m3 | mass density (308.15 K, x2 = 0.385): 916 kg/m3 | mass density (308.15 K, x2 = 0.4604): 931.9 kg/m3 | mass density (308.15 K, x2 = 0.5091): 941.9 kg/m3 | mass density (308.15 K, x2 = 0.5505): 950.4 kg/m3 | mass density (308.15 K, x2 = 0.5978): 959.8 kg/m3 | mass density (308.15 K, x2 = 0.6522): 970.6 kg/m3 | mass density (308.15 K, x2 = 0.7117): 982.1 kg/m3 | mass density (308.15 K, x2 = 0.7976): 998.2 kg/m3 | mass density (308.15 K, x2 = 0.8577): 1009.3 kg/m3 | mass density (308.15 K, x2 = 0.9256): 1021.4 kg/m3 | mass density (308.15 K, x2 = 0.9633): 1028.3 kg/m3

COCCO + CCOCCOCC
mass density (298.15 K, x1 = 1): 960.2 kg/m3 | mass density (308.15 K, x1 = 1): 951.5 kg/m3

CCOCCOCC + COCCOCCO
mass density (298.15 K, x2 = 0): 836.2 kg/m3 | mass density (298.15 K, x2 = 0.0416): 843.1 kg/m3 | mass density (298.15 K, x2 = 0.0967): 852.2 kg/m3 | mass density (298.15 K, x2 = 0.2291): 874.5 kg/m3 | mass density (298.15 K, x2 = 0.2741): 882.2 kg/m3 | mass density (298.15 K, x2 = 0.3082): 888 kg/m3 | mass density (298.15 K, x2 = 0.344): 894.2 kg/m3 | mass density (298.15 K, x2 = 0.4006): 904.1 kg/m3 | mass density (298.15 K, x2 = 0.4593): 914.5 kg/m3 | mass density (298.15 K, x2 = 0.5082): 923.2 kg/m3 | mass density (298.15 K, x2 = 0.5635): 933.2 kg/m3 | mass density (298.15 K, x2 = 0.6552): 950.1 kg/m3 | mass density (298.15 K, x2 = 0.6969): 957.9 kg/m3 | mass density (298.15 K, x2 = 0.8075): 978.8 kg/m3 | mass density (298.15 K, x2 = 0.8567): 988.3 kg/m3 | mass density (298.15 K, x2 = 0.9074): 998.2 kg/m3 | mass density (298.15 K, x2 = 0.9515): 1006.8 kg/m3 | mass density (308.15 K, x1 = 0.0146): 1004.7 kg/m3 | mass density (308.15 K, x2 = 0): 827.6 kg/m3 | mass density (308.15 K, x2 = 0.0162): 830.3 kg/m3 | mass density (308.15 K, x2 = 0.0416): 834.4 kg/m3 | mass density (308.15 K, x2 = 0.0613): 837.7 kg/m3 | mass density (308.15 K, x2 = 0.0967): 843.6 kg/m3 | mass density (308.15 K, x2 = 0.1691): 855.6 kg/m3 | mass density (308.15 K, x2 = 0.3082): 879.3 kg/m3 | mass density (308.15 K, x2 = 0.344): 885.5 kg/m3 | mass density (308.15 K, x2 = 0.4006): 895.3 kg/m3 | mass density (308.15 K, x2 = 0.4593): 905.7 kg/m3 | mass density (308.15 K, x2 = 0.5082): 914.4 kg/m3 | mass density (308.15 K, x2 = 0.5635): 924.4 kg/m3 | mass density (308.15 K, x2 = 0.6145): 933.7 kg/m3 | mass density (308.15 K, x2 = 0.6552): 943.1 kg/m3 | mass density (308.15 K, x2 = 0.6969): 949 kg/m3 | mass density (308.15 K, x2 = 0.8075): 970 kg/m3 | mass density (308.15 K, x2 = 0.8567): 979.5 kg/m3 | mass density (308.15 K, x2 = 0.9515): 998 kg/m3

COCCOCCO + CCOCCOCC
mass density (298.15 K, x1 = 1): 1016.4 kg/m3 | mass density (308.15 K, x1 = 1): 1007.6 kg/m3

COCCOCCOCCO + CCOCCOCC
mass density (308.15 K, x1 = 1): 1034.3 kg/m3

CCOCCOCC + COCCO
mass density (298.15 K, x1 = 0.0157): 957 kg/m3 | mass density (298.15 K, x2 = 0): 836.2 kg/m3 | mass density (298.15 K, x2 = 0.0142): 837.3 kg/m3 | mass density (298.15 K, x2 = 0.0658): 841.3 kg/m3 | mass density (298.15 K, x2 = 0.0821): 842.6 kg/m3 | mass density (298.15 K, x2 = 0.1085): 844.8 kg/m3 | mass density (298.15 K, x2 = 0.1503): 848.3 kg/m3 | mass density (298.15 K, x2 = 0.2016): 852.8 kg/m3 | mass density (298.15 K, x2 = 0.3202): 863.9 kg/m3 | mass density (298.15 K, x2 = 0.3604): 867.9 kg/m3 | mass density (298.15 K, x2 = 0.4322): 875.5 kg/m3 | mass density (298.15 K, x2 = 0.5152): 884.9 kg/m3 | mass density (298.15 K, x2 = 0.5455): 888.5 kg/m3 | mass density (298.15 K, x2 = 0.7119): 910.5 kg/m3 | mass density (298.15 K, x2 = 0.8023): 924.3 kg/m3 | mass density (298.15 K, x2 = 0.8705): 935.7 kg/m3 | mass density (298.15 K, x2 = 0.9222): 945 kg/m3 | mass density (298.15 K, x2 = 0.9592): 950.7 kg/m3 | mass density (308.15 K, x1 = 0.0157): 948.3 kg/m3 | mass density (308.15 K, x2 = 0): 827.6 kg/m3 | mass density (308.15 K, x2 = 0.0142): 828.7 kg/m3 | mass density (308.15 K, x2 = 0.0354): 830.3 kg/m3 | mass density (308.15 K, x2 = 0.0658): 832.8 kg/m3 | mass density (308.15 K, x2 = 0.0821): 834.1 kg/m3 | mass density (308.15 K, x2 = 0.1085): 836.2 kg/m3 | mass density (308.15 K, x2 = 0.1503): 839.7 kg/m3 | mass density (308.15 K, x2 = 0.2016): 844.2 kg/m3 | mass density (308.15 K, x2 = 0.28): 851.3 kg/m3 | mass density (308.15 K, x2 = 0.3202): 855.2 kg/m3 | mass density (308.15 K, x2 = 0.3604): 859.2 kg/m3 | mass density (308.15 K, x2 = 0.4322): 866.7 kg/m3 | mass density (308.15 K, x2 = 0.5152): 876.1 kg/m3 | mass density (308.15 K, x2 = 0.5455): 879.7 kg/m3 | mass density (308.15 K, x2 = 0.5957): 885.9 kg/m3 | mass density (308.15 K, x2 = 0.6464): 892.6 kg/m3 | mass density (308.15 K, x2 = 0.7119): 901.7 kg/m3 | mass density (308.15 K, x2 = 0.7472): 906.9 kg/m3 | mass density (308.15 K, x2 = 0.8023): 915.5 kg/m3 | mass density (308.15 K, x2 = 0.8705): 927 kg/m3 | mass density (308.15 K, x2 = 0.9222): 936.3 kg/m3 | mass density (308.15 K, x2 = 0.9592): 942 kg/m3
